# According to the supplement of paper PMC8728848:
# The other results are listed elsewhere or left out.
# Legend:
# Assay in all cases: glycan array binding signal (z-score within array); higher = stronger binding
# Conditions in all cases: glycan notation: IUPAC condensed, linker removed
# [1] = molecular target: Gal(b1-4)GlcNAc(b1-2)[Gal(b1-4)GlcNAc(b1-6)]Man(a1-6)[Gal(b1-4)GlcNAc(b1-2)Man(a1-3)]Man(b1-4)GlcNAc(b1-4)[Fuc(a1-6)]GlcNAc
# Method in brief: (§1)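 Glycan array data came from 3228 arrays in the Consortium for Functional Glycomics database, and only arrays with an available protein sequence were kept. Glycan names were put into IUPAC-condensed notation, and columns mapping to the same glycan were averaged. The binding signal is a within-array Z-score, averaged across arrays of one protein sequence run at different concentrations or buffers and across linkers. A negative Z-score can be read as non-binding.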
# [2] = molecular target: Gal(b1-4)GlcNAc(b1-2)[Gal(b1-4)GlcNAc(b1-6)]Man(a1-6)[GlcNAc(b1-4)][Gal(b1-4)GlcNAc(b1-2)Man(a1-3)]Man(b1-4)GlcNAc(b1-4)GlcNAc
# Method in brief: as §1
# [3] = molecular target: Gal(b1-4)GlcNAc(b1-2)[Gal(b1-4)GlcNAc(b1-6)]Man(a1-6)[GlcNAc(b1-4)][Gal(b1-4)GlcNAc(b1-2)[Gal(b1-4)GlcNAc(b1-4)]Man(a1-3)]Man(b1-4)GlcNAc(b1-4)[Fuc(a1-6)]GlcNAc
# Method in brief: as §1
# [4] = molecular target: Gal(b1-4)GlcNAc(b1-3)Gal(b1-3)GalNAc
# Method in brief: as §1
# [5] = molecular target: Gal(b1-4)GlcNAc(b1-3)Gal(b1-3)GlcNAc
# Method in brief: as §1
# [6] = molecular target: Gal(b1-4)GlcNAc(b1-3)Gal(b1-4)Glc
# Method in brief: as §1
# [7] = molecular target: Gal(b1-4)GlcNAc(b1-3)Gal(b1-4)GlcNAc
# Method in brief: as §1
# [8] = molecular target: Gal(b1-4)GlcNAc(b1-3)Gal(b1-4)GlcNAc(b1-2)Man(a1-3)[Gal(b1-4)GlcNAc(b1-3)Gal(b1-4)GlcNAc(b1-2)Man(a1-6)]Man(b1-4)GlcNAc(b1-4)GlcNAc
# Method in brief: as §1
# [9] = molecular target: Gal(b1-4)GlcNAc(b1-3)Gal(b1-4)GlcNAc(b1-2)Man(a1-3)[Gal(b1-4)GlcNAc(b1-3)Gal(b1-4)GlcNAc(b1-2)Man(a1-6)]Man(b1-4)GlcNAc(b1-4)[Fuc(a1-6)]GlcNAc
# Method in brief: as §1
# [10] = molecular target: Gal(b1-4)GlcNAc(b1-3)Gal(b1-4)GlcNAc(b1-2)[Gal(b1-4)GlcNAc(b1-3)Gal(b1-4)GlcNAc(b1-6)]Man(a1-6)[Gal(b1-4)GlcNAc(b1-3)Gal(b1-4)GlcNAc(b1-2)Man(a1-3)]Man(b1-4)GlcNAc(b1-4)GlcNAc
# Method in brief: as §1
# [11] = molecular target: Gal(b1-4)GlcNAc(b1-3)Gal(b1-4)GlcNAc(b1-2)[Gal(b1-4)GlcNAc(b1-3)Gal(b1-4)GlcNAc(b1-6)]Man(a1-6)[Gal(b1-4)GlcNAc(b1-3)Gal(b1-4)GlcNAc(b1-2)Man(a1-3)]Man(b1-4)GlcNAc(b1-4)[Fuc(a1-6)]GlcNAc
# Method in brief: as §1
# [12] = molecular target: Gal(b1-4)GlcNAc(b1-3)Gal(b1-4)GlcNAc(b1-3)Gal(b1-4)GlcNAc
# Method in brief: as §1
# [13] = molecular target: Gal(b1-4)GlcNAc(b1-3)Gal(b1-4)GlcNAc(b1-3)Gal(b1-4)GlcNAc(b1-2)Man(a1-3)[Gal(b1-4)GlcNAc(b1-3)Gal(b1-4)GlcNAc(b1-3)Gal(b1-4)GlcNAc(b1-2)Man(a1-6)]Man(b1-4)GlcNAc(b1-4)GlcNAc
# Method in brief: as §1
# [14] = molecular target: Gal(b1-4)GlcNAc(b1-3)Gal(b1-4)GlcNAc(b1-3)Gal(b1-4)GlcNAc(b1-2)Man(a1-3)[Gal(b1-4)GlcNAc(b1-3)Gal(b1-4)GlcNAc(b1-3)Gal(b1-4)GlcNAc(b1-2)Man(a1-6)]Man(b1-4)GlcNAc(b1-4)[Fuc(a1-6)]GlcNAc
# Method in brief: as §1
# [15] = molecular target: Gal(b1-4)GlcNAc(b1-3)Gal(b1-4)GlcNAc(b1-3)Gal(b1-4)GlcNAc(b1-2)[Gal(b1-4)GlcNAc(b1-3)Gal(b1-4)GlcNAc(b1-3)Gal(b1-4)GlcNAc(b1-6)]Man(a1-6)[Gal(b1-4)GlcNAc(b1-3)Gal(b1-4)GlcNAc(b1-3)Gal(b1-4)GlcNAc(b1-2)Man(a1-3)]Man(b1-4)GlcNAc(b1-4)[Fuc(a1-6)]GlcNAc
# Method in brief: as §1
# [16] = molecular target: Gal(b1-4)GlcNAc(b1-3)Gal(b1-4)GlcNAc(b1-3)Gal(b1-4)GlcNAc(b1-3)Gal(b1-4)GlcNAc(b1-2)Man(a1-3)[Gal(b1-4)GlcNAc(b1-3)Gal(b1-4)GlcNAc(b1-3)Gal(b1-4)GlcNAc(b1-3)Gal(b1-4)GlcNAc(b1-2)Man(a1-6)]Man(b1-4)GlcNAc(b1-4)GlcNAc
# Method in brief: as §1
# [17] = molecular target: Gal(b1-4)GlcNAc(b1-3)Gal(b1-4)GlcNAc(b1-3)Gal(b1-4)GlcNAc(b1-3)Gal(b1-4)GlcNAc(b1-2)Man(a1-3)[Gal(b1-4)GlcNAc(b1-3)Gal(b1-4)GlcNAc(b1-3)Gal(b1-4)GlcNAc(b1-3)Gal(b1-4)GlcNAc(b1-2)Man(a1-6)]Man(b1-4)GlcNAc(b1-4)[Fuc(a1-6)]GlcNAc
# Method in brief: as §1
# [18] = molecular target: Gal(b1-4)GlcNAc(b1-3)Gal(b1-4)GlcNAc(b1-3)Gal(b1-4)GlcNAc(b1-3)Gal(b1-4)GlcNAc(b1-2)[Gal(b1-4)GlcNAc(b1-3)Gal(b1-4)GlcNAc(b1-3)Gal(b1-4)GlcNAc(b1-3)Gal(b1-4)GlcNAc(b1-6)]Man(a1-6)[Gal(b1-4)GlcNAc(b1-3)Gal(b1-4)GlcNAc(b1-3)Gal(b1-4)GlcNAc(b1-3)Gal(b1-4)GlcNAc(b1-2)Man(a1-3)]Man(b1-4)GlcNAc(b1-4)[Fuc(a1-6)]GlcNAc
# Method in brief: as §1
# [19] = molecular target: Gal(b1-4)GlcNAc(b1-3)Gal(b1-4)GlcNAc(b1-3)Gal(b1-4)GlcNAc(b1-3)Gal(b1-4)GlcNAc(b1-3)Gal(b1-4)GlcNAc(b1-2)Man(a1-3)[Gal(b1-4)GlcNAc(b1-3)Gal(b1-4)GlcNAc(b1-3)Gal(b1-4)GlcNAc(b1-3)Gal(b1-4)GlcNAc(b1-3)Gal(b1-4)GlcNAc(b1-2)Man(a1-6)]Man(b1-4)GlcNAc(b1-4)GlcNAc
# Method in brief: as §1
# [20] = molecular target: Gal(b1-4)GlcNAc(b1-3)Gal(b1-4)GlcNAc(b1-3)Gal(b1-4)GlcNAc(b1-3)Gal(b1-4)GlcNAc(b1-3)Gal(b1-4)GlcNAc(b1-2)Man(a1-3)[Gal(b1-4)GlcNAc(b1-3)Gal(b1-4)GlcNAc(b1-3)Gal(b1-4)GlcNAc(b1-3)Gal(b1-4)GlcNAc(b1-3)Gal(b1-4)GlcNAc(b1-2)Man(a1-6)]Man(b1-4)GlcNAc(b1-4)[Fuc(a1-6)]GlcNAc
# Method in brief: as §1
# [21] = molecular target: Gal(b1-4)GlcNAc(b1-3)Gal(b1-4)GlcNAc(b1-3)Gal(b1-4)GlcNAc(b1-3)Gal(b1-4)GlcNAc(b1-3)Gal(b1-4)GlcNAc(b1-2)[Gal(b1-4)GlcNAc(b1-3)Gal(b1-4)GlcNAc(b1-3)Gal(b1-4)GlcNAc(b1-3)Gal(b1-4)GlcNAc(b1-3)Gal(b1-4)GlcNAc(b1-6)]Man(a1-6)[Gal(b1-4)GlcNAc(b1-3)Gal(b1-4)GlcNAc(b1-3)Gal(b1-4)GlcNAc(b1-3)Gal(b1-4)GlcNAc(b1-3)Gal(b1-4)GlcNAc(b1-2)Man(a1-3)]Man(b1-4)GlcNAc(b1-4)[Fuc(a1-6)]GlcNAc
# Method in brief: as §1
# [22] = molecular target: Gal(b1-4)GlcNAc(b1-3)Gal(b1-4)GlcNAc(b1-3)Gal(b1-4)GlcNAc(b1-3)Gal(b1-4)GlcNAc(b1-3)Gal(b1-4)GlcNAc(b1-3)Gal(b1-4)GlcNAc(b1-2)Man(a1-3)[Gal(b1-4)GlcNAc(b1-3)Gal(b1-4)GlcNAc(b1-3)Gal(b1-4)GlcNAc(b1-3)Gal(b1-4)GlcNAc(b1-3)Gal(b1-4)GlcNAc(b1-3)Gal(b1-4)GlcNAc(b1-2)Man(a1-6)]Man(b1-4)GlcNAc(b1-4)GlcNAc
# Method in brief: as §1
# [23] = molecular target: Gal(b1-4)GlcNAc(b1-3)Gal(b1-4)GlcNAc(b1-3)GalNAc
# Method in brief: as §1
binder,measurement,setting,value
"CFEM-PPl (Pichia pastoris), F2QPV1 (protein) AVATPPACLLACAAEVVKESSDCDALNNIQCICENEGSAIHACLESTCPDGLSSTALQSFEDVCESVGTEANLDE",glycan array binding signal (z-score),[1],0.199
same,glycan array binding signal (z-score),[2],-0.162
same,glycan array binding signal (z-score),[3],0.333
same,glycan array binding signal (z-score),[4],-0.357
same,glycan array binding signal (z-score),[5],-0.279
same,glycan array binding signal (z-score),[6],-0.046
same,glycan array binding signal (z-score),[7],-0.045
same,glycan array binding signal (z-score),[8],0.453
same,glycan array binding signal (z-score),[9],0.174
same,glycan array binding signal (z-score),[10],0.302
same,glycan array binding signal (z-score),[11],0.258
same,glycan array binding signal (z-score),[12],-0.06
same,glycan array binding signal (z-score),[13],0.383
same,glycan array binding signal (z-score),[14],0.246
same,glycan array binding signal (z-score),[15],0.323
same,glycan array binding signal (z-score),[16],0.111
same,glycan array binding signal (z-score),[17],0.054
same,glycan array binding signal (z-score),[18],0.208
same,glycan array binding signal (z-score),[19],0.068
same,glycan array binding signal (z-score),[20],-0.06
same,glycan array binding signal (z-score),[21],0.169
same,glycan array binding signal (z-score),[22],0.228
same,glycan array binding signal (z-score),[23],-0.058
